Test results as given in PubChem BioAssay AID1963972 (Molecular Pharmacology Branch, DTP, NCI, 2024).
For part of its entries the source gives two or more results. They are shown here; other results are not. An entry can have further records. Values given together repeat one measurement (runs, samples, wells, individuals or studies). Counts like (3×) stand for listed records that agree.

Tested on: 945468-187-T-J2-PDC spheroids viability
Assay: Anticancer human tumor 945468-187-T-J2-PDC patient-derived rectal carcinoma cell line growth inhibition [PI3K]
Conditions: spheroids with HUVEC and MSC; for viability, T/C: stronger effect = lower value
Source text: Combinatorial screen of targeted agents with the PI3K inhibitors inavolisib, alpelisib, duvelisib, and copanlisib in multi-cell type tumor spheroids
A high-throughput screen of multi-cell type tumor spheroids was designed to identify active combinations of targeted small molecules and PI3K pathway inhibitors. Complex spheroids include a stromal component modeled by human endothelial cells (HUVEC) and fibroblasts modeled by human mesenchymal stem cells (MSCs). The concentration ranges selected for each drug and investigational agent were based upon clinically achievable concentrations if the clinical Cmax of the agent was known.
Compounds. The drugs and investigational agents: inavolisib (NSC800729), alpelisib (NSC765974), duvelisib (NSC772469), copanlisib (NSC816437), ipatasertib (NSC767898), afuresertib (NSC778305), talazoparib (NSC767125), sapanisertib (NSC764658), selumetinib (NSC741078), tovorafenib (DAY101, NSC766906), vemurafenib (NSC761431), ravoxertinib (NSC781343), sotorasib (NSC818433), MRTX1133 (NSC 836407), abemaciclib (NSC 768073), palbociclib (NSC758247), venetoclax (NSC 766270), SY5609 (NSC837396), enzalutamide (NSC755605), and darolutamide (NSC825331), were obtained from the National Cancer Institute (NCI) Developmental Therapeutics Program Chemical Repository. The FDA-approved anticancer drug set is available from the NCI Developmental Therapeutics Program. […] The stock solutions were prepared in dimethyl sulfoxide (DMSO, Sigma-Aldrich, St. Louis, MO, cat. D2650) at 800-fold the tested concentration and stored at -70 degrees C prior to their use. All drugs and investigational agents were tested over a range starting from a high concentration at or near the clinical Cmax and decreasing in half-log increments. If the clinical Cmax for an agent had not been determined, the highest concentration tested was 10 microM.
Cell Culture. All cells were maintained in an incubator at 37 degrees C and 5% CO2 with 95% humidity. The PDC lines were cultured according to standard operating procedures established by the NCI PDMR (https://pdmr.cancer.gov/sops/default.htm). All PDCs were thawed and cultured in Matrigel-coated flasks prepared with a working solution of 1X Ham's F-12 nutrient mix, without supplementation (Invitrogen, Waltham, MA, cat. 11765054), 100 U/mL penicillin-streptomycin (Invitrogen, cat. 15140122), and 2.5% Matrigel (Corning Inc., Corning, NY, cat. 354248) for the first three passages. The 354836-022-R-J1-PDC, 475296-252-R-J1-PDC, and 997726-040-R-J2-PDC lines were cultured in 6A media, which includes advanced DMEM/F-12 (Thermo Fisher Scientific, cat. 12634028), 10 mM HEPES (Thermo Fisher Scientific, cat. 15630080), 1X GlutaMAX supplement (Thermo Fisher Scientific, cat. 35050061), 0.1 mg/mL primocin (InvivoGen, San Diego, CA, cat. ant-pm-2), 10% defined fetal bovine serum, heat inactivated (HyClone Laboratories Inc., Logan, UT, cat. SH30070.03HI), 50% L-WRN conditioned media (ATCC, cat. CRL-3276), 1.25 mM N-Acetyl-L-cysteine (Sigma-Aldrich, cat. A9165), 10 mM nicotinamide (Sigma-Aldrich, cat. N0636), 1X B-27 supplement (Thermo Fisher Scientific, cat. 17504044), 1X N-2 supplement (Thermo Fisher Scientific, cat. 17502048), and 10 microM Y-27632 dihydrochloride (Tocris Bioscience, Bristol, United Kingdom, cat. 1254). The 624824-186-R-J2-PDC line was cultured in 6C/Colon 1B media, which includes all 6A media components plus 50 ng/mL human EGF recombinant protein (Thermo Fisher Scientific, cat. PHG0311). […]
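Also: spheroids exposed to compounds for seven days before reading.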

In the case of Cn1cnc2c(F)c(Nc3ccc(Br)cc3Cl)c(C(=O)NOCCO)cc21, the viability, T/C (compound alone 0.00949 µM) is reported as 87.2, 82.8, 85.3, 116%, the viability, T/C (compound alone 0.03 µM) is reported as 75.6, 76.7, 87.8, 107% and the viability, T/C (compound alone 0.0949 µM) is reported as 72.3, 89.9, 88, 105%. The viability, T/C (compound alone 0.3 µM) was 68.3, 70.2, 91.1, 115%.
For CC1(C)CCC(Nc2ncc(C(F)(F)F)c(-c3c[nH]c4c(P(C)(C)=O)c(C#N)ccc34)n2)CN1 (stereo not given), the viability, T/C (compound alone 0.316 µM) was 79.7, 91.1, 51.6, 56.4%, the viability, T/C (compound alone 1 µM) was 57.8, 54.8, 32.2, 39.7% and the viability, T/C (compound alone 10 µM) was 50, 39.2, 25.5, 24.2%. The IC50 (compound alone) was > 10 µM, 2.03 µM, 343 nM, 459 nM.
For Cc1nc(NC(=O)N2CCCC2C(N)=O)sc1-c1ccnc(C(C)(C)C(F)(F)F)c1 (stereo not given), the viability, T/C (compound alone 0.316 µM) was 81.5, 108 (2×), 74.8, 104, 84.9, 94, 103%, the viability, T/C (compound alone 1 µM) was 109, 78.6, 82.9, 83.6, 103, 97.5, 97.2, 105% and the viability, T/C (compound alone 3.16 µM) was 88.1, 82.5, 97.5, 79.6, 81.9, 107, 97.9, 92.5%. For the same molecule, the viability, T/C (compound alone 10 µM) was 75.1, 67.4, 81.5, 67.8, 97.8, 82.2, 85.6, 107%.
In the case of CC(=O)c1c(C)c2cnc(Nc3ccc(N4CCNCC4)cn3)nc2n(C2CCCC2)c1=O, the viability, T/C (compound alone 0.001 µM) is reported as 106, 93.6, 96.3, 132%, the viability, T/C (compound alone 0.0316 µM) is reported as 87.1, 103, 84.6, 122% and the viability, T/C (compound alone 0.1 µM) is reported as 79.2, 111, 116, 89%.
In the case of Cn1ncc(Cl)c1-c1cc(C(=O)NC(CN)Cc2cccc(F)c2)sc1Cl (stereo not given), the viability, T/C (compound alone 0.0316 µM) is reported as 114, 82.9, 93.1, 86.2%, the viability, T/C (compound alone 0.316 µM) is reported as 111, 71.7, 91.7, 91.3% and the viability, T/C (compound alone 10 µM) is reported as 57.9, 92.8, 56.6, 58.9%.
For Cn1nccc1Nc1nccc(-c2ccn(C(CO)c3ccc(Cl)c(F)c3)c(=O)c2)n1 (stereo not given), the viability, T/C (compound alone 0.0316 µM) was 99.8, 118, 85.5, 102% and the viability, T/C (compound alone 1 µM) was 77.3, 86.7, 82.2, 125%.
For CC(Cn1ccc(-c2ccc(C#N)c(Cl)c2)n1)NC(=O)c1cc(C(C)O)[nH]n1 (stereo not given), the viability, T/C (compound alone 0.0316 µM) was 96.3, 90.1, 92.3, 126%, the viability, T/C (compound alone 0.1 µM) was 83.4, 108, 83.2, 120% and the viability, T/C (compound alone 0.316 µM) was 105, 92.8, 118, 108%. The viability, T/C (compound alone 1 µM) was 95.4, 78.5, 96, 104% and the viability, T/C (compound alone 10 µM) was 76, 87.8, 82.4, 133%.
With CC1(C)CCC(CN2CCN(c3ccc(C(=O)NS(=O)(=O)c4ccc(NCC5CCOCC5)c([N+](=O)[O-])c4)c(Oc4cnc5[nH]ccc5c4)c3)CC2)=C(c2ccc(Cl)cc2)C1 the viability, T/C (compound alone 0.0316 µM) was 88.7, 87.6, 115, 109%, the viability, T/C (compound alone 0.1 µM) was 92.3, 98.3, 82.4, 109% and the viability, T/C (compound alone 10 µM) was 62.6, 50.4, 86.5, 81.7%.
With C=CC(=O)N1CCN(c2nc(=O)n(-c3c(C)ccnc3C(C)C)c3nc(-c4c(O)cccc4F)c(F)cc23)C(C)C1 (stereo not given) the viability, T/C (compound alone 0.0316 µM) was 80.9, 89.6, 120, 113% and the viability, T/C (compound alone 1 µM) was 96.9, 111, 85.5, 108%.
With CNC(=O)c1ccc(N2C(=S)N(c3ccc(C#N)c(C(F)(F)F)c3)C(=O)C2(C)C)cc1F the viability, T/C (compound alone 10 µM) was 81, 70.1, 118, 99%.
With Cn1ncnc1[C@H]1c2n[nH]c(=O)c3cc(F)cc(c23)N[C@@H]1c1ccc(F)cc1 the viability, T/C (compound alone 0.001 µM) was 96.9, 117, 87.5, 101%.
CC(Nc1ccc2c(c1)OCCn1cc(N3C(=O)OCC3C(F)F)nc1-2)C(N)=O (stereo not given) was tested, and the viability, T/C (compound alone 0.00316 µM) was 106, 117, 90.2, 108, 119, 86.2, 78.6, 102% and the viability, T/C (compound alone 0.0316 µM) was 91.6, 90.9, 82.2, 107, 120, 110, 68.5, 90.1%.
C#Cc1c(F)ccc2cc(O)cc(-c3ncc4c(N5CC6CCC(C5)N6)nc(OCC56CCCN5CC(F)C6)nc4c3F)c12 (stereo not given) was tested, and the viability, T/C (compound alone 0.1 µM) was 93.4, 76.7, 121, 95.2%, the viability, T/C (compound alone 1 µM) was 123, 86.3, 98.8, 89.3% and the viability, T/C (compound alone 3.16 µM) was 116, 103, 119, 92.6%. For the same molecule, the viability, T/C (compound alone 10 µM) was 100, 87.7, 116, 90.5%.
For CC(C)NCC(C(=O)N1CCN(c2ncnc3c2C(C)CC3O)CC1)c1ccc(Cl)cc1 (stereo not given), the viability, T/C (compound alone 0.0316 µM) was 106, 116, 88.3, 111% and the viability, T/C (compound alone 10 µM) was 107, 93.7, 79.8, 118%.
In the case of C[C@@H](NC(=O)c1ncnc(N)c1Cl)c1ncc(C(=O)Nc2cc(C(F)(F)F)c(Cl)cn2)s1, the viability, T/C (compound alone 1 µM) is reported as 86.7, 109, 77.4, 96.5% and the viability, T/C (compound alone 3.16 µM) is reported as 88.2, 116, 114, 113%.
In the case of CCCS(=O)(=O)Nc1ccc(F)c(C(=O)c2c[nH]c3ncc(-c4ccc(Cl)cc4)cc23)c1F, the viability, T/C (compound alone 3.16 µM) is reported as 58, 80.5, 87.1, 70%.
In the case of CCN1CCN(Cc2ccc(Nc3ncc(F)c(-c4cc(F)c5nc(C)n(C(C)C)c5c4)n3)nc2)CC1, the viability, T/C (compound alone 0.01 µM) is reported as 99.2, 88.2, 73.7, 80.3%, the viability, T/C (compound alone 0.0316 µM) is reported as 131, 83.4, 77.5, 98.9% and the viability, T/C (compound alone 0.1 µM) is reported as 106, 88.8, 104, 133%.
In the case of CC(Nc1ncnc2nc[nH]c12)c1cc2cccc(Cl)c2c(=O)n1-c1ccccc1 (stereo not given), the viability, T/C (compound alone 0.0316 µM) is reported as 91, 84.3, 83.3, 97.2, 94.7, 110, 81.6, 86.8%, the viability, T/C (compound alone 1 µM) is reported as 106 (3×), 108, 72.2, 107, 88.9, 104% and the viability, T/C (compound alone 3.16 µM) is reported as 93.8, 95.1, 91.7, 99.8 (2×), 123, 73.9, 111%.
In the case of CC(C)n1nc(-c2ccc3oc(N)nc3c2)c2c(N)ncnc21, the viability, T/C (compound alone 0.000316 µM) is reported as 72.2, 96.8, 117, 105%, the viability, T/C (compound alone 0.00316 µM) is reported as 76.4, 127, 84.5, 90.6% and the viability, T/C (compound alone 0.01 µM) is reported as 73, 81.5, 94, 100%.
With COc1c(OCCCN2CCOCC2)ccc2c3n(c(=NC(=O)c4cnc(N)nc4)nc12)CCN3 the viability, T/C (compound alone 0.01 µM) was 99.5, 102, 99.9, 76.4, 93.5, 92.4, 103% (2×), the viability, T/C (compound alone 0.0316 µM) was 84.4, 80.3, 96.8, 83.6, 87.7, 110, 81, 90.5% and the viability, T/C (compound alone 0.1 µM) was 102, 96.3, 81.1, 85.8, 85.6, 93.4, 76.5, 88.1%.
